In the experiment the target is T1, human IL-17A (human, UniProt Q16552 20-155).
T1 construct: Peprotech cat. no; 200-17; homodimeric cytokine; biotinylated with Sulfo-NHS-LC-Biotin for the ELISAs; also called hIL-17A; rhIL-17A
T1 sequence: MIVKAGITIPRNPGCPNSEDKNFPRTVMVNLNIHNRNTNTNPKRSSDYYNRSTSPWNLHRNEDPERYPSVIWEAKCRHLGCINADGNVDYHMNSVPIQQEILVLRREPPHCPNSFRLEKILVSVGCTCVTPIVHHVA
In words: ELISA, captured periplasmic Z-ABD, titrated b-hIL-17A. As for the experimental part: Data were analyzed using GraphPad Prism 5 and non-linear regression, and EC50 values (the half maximal effective concentration) were calculated.
For orientation: In an ELISA, binding on a coated surface is turned into a signal by an enzyme label.

B1: Z10676, periplasmic ABD fusion (designed binder)
chain: AQHDEALEVDAKYAKEADDAAVEIADLPNLTWDQWYAFIQKLRDDPSQSSELLSEAKKLNDSQAPKVDYVLAEAKVLANRELDKYGVSDYYKNLINNAKTVEGVKALIDEILAALPYVPG
notes: domain: GA3
In general, EC50 refers to the concentration needed to bring the measured effect to its halfway point. A higher EC50 goes with a less potent agent. B1 showed an EC50 of 0.4 nM.

B2: Z10566, periplasmic ABD fusion (designed binder)
chain: AQHDEALEVDAKYAKEADDAAIEIASLPNLTWDQWYAFIGKLRDDPSQSSELLSEAKKLNDSQAPKVDYVLAEAKVLANRELDKYGVSDYYKNLINNAKTVEGVKALIDEILAALPYVPG
notes: domain: GA3
Turning to B2, a half-maximal effect (EC50) was put at 0.55 nM.

B3: Z10779, periplasmic ABD fusion (designed binder)
chain: AQHDEALEVDAKYAKEADDAAVEIAALPNLTWDQWFAFIQKLRDDPSQSSELLSEAKKLNDSQAPKVDYVLAEAKVLANRELDKYGVSDYYKNLINNAKTVEGVKALIDEILAALPYVPG
notes: domain: GA3
B3 came in with an EC50 of 0.57 nM. This EC50 and that of the molecule before are within 1.5-fold of each other.

B4: Z10690, periplasmic ABD fusion (designed binder)
chain: AQHDEALEVDAKYAKEADDAAVEIAMLPNLTWDQWYAFIGKLRDDPSQSSELLSEAKKLNDSQAPKVDYVLAEAKVLANRELDKYGVSDYYKNLINNAKTVEGVKALIDEILAALPYVPG
notes: domain: GA3
For the molecule B4, the 50% effective concentration (EC50) was determined as 0.59 nM. The EC50 values of the last two molecules are within 1.5-fold of each other.

B5: Z10210, periplasmic ABD fusion (designed binder)
chain: AQHDEALEVDAKYAKEMDYAQWEIWLLPNLTWDQGHAFISKLIDDPSQSSELLSEAKKLNDSQAPKVDYVLAEAKVLANRELDKYGVSDYYKNLINNAKTVEGVKALIDEILAALPYVPG
notes: domain: GA3
B5 came in with a 50% effective concentration (EC50) of 1.1 nM. This EC50 is about 1.9-fold higher than that of the molecule before.

B6: Z10257, periplasmic ABD fusion (designed binder)
chain: AQHDEALEVDAKYAKEADDAAFEIAMLPNLTWDQWYAFIRKLRDDPSQSSELLSEAKKLNDSQAPKVDYVLAEAKVLANRELDKYGVSDYYKNLINNAKTVEGVKALIDEILAALPYVPG
notes: domain: GA3
Take B6: a half-maximal response (EC50) required 0.67 nM.

B7: Z10459, periplasmic ABD fusion (designed binder)
chain: AQHDEALEVDAKYAKEADNAAVEIADLPNLTWVQWYAFIQKLRDDPSQSSELLSEAKKLNDSQAPKVDYVLAEAKVLANRELDKYGVSDYYKNLINNAKTVEGVKALIDEILAALPYVPG
notes: domain: GA3
As for B7, the EC50 amounted to 0.47 nM. The EC50 values of the last two molecules are within 1.5-fold of each other.

B8: Z10718, periplasmic ABD fusion (designed binder)
chain: AQHDEALEVDAKYAKEADDAAVEIADLPNLTWDQWHAFIQKLRDDPSQSSELLSEAKKLNDSQAPKVDYVLAEAKVLANRELDKYGVSDYYKNLINNAKTVEGVKALIDEILAALPYVPG
notes: domain: GA3
B8 returned a 50% effective concentration (EC50) of 0.51 nM. This EC50 and that of the molecule before are within 1.5-fold of each other.

B9: Z10529, periplasmic ABD fusion (designed binder)
chain: AQHDEALEVDAKYAKEADDAAVEIAMLPNLTWDQWYAFIQKLRDDPSQSSELLSEAKKLNDSQAPKVDYVLAEAKVLANRELDKYGVSDYYKNLINNAKTVEGVKALIDEILAALPYVPG
notes: domain: GA3
As to B9, it took 0.64 nM to reach a half-maximal effect (EC50).

B10: Z10470, periplasmic ABD fusion (designed binder)
chain: AQHDEALEVDAKYAKEADDAAVEIASLPNLTWDQWYAFISKLRDDPSQSSELLSEAKKLNDSQAPKVDYVLAEAKVLANRELDKYGVSDYYKNLINNAKTVEGVKALIDEILAALPYVPG
notes: domain: GA3
B10: it took 0.47 nM to reach a half-maximal effect (EC50).

B11: Z10675, periplasmic ABD fusion (designed binder)
chain: AQHDEALEVDAKYAKEADDAAVEIADLPNLTWDQWFAFIQKLRDDPSQSSELLSEAKKLNDSQAPKVDYVLAEAKVLANRELDKYGVSDYYKNLINNAKTVEGVKALIDEILAALPYVPG
notes: domain: GA3
B11 had an EC50 of 0.36 nM.

B12: Z10775, periplasmic ABD fusion (designed binder)
chain: AQHDEALEVDAKYAKEADDAAVEIADLPNLTWDQWFAFIGKLRDDPSQSSELLSEAKKLNDSQAPKVDYVLAEAKVLANRELDKYGVSDYYKNLINNAKTVEGVKALIDEILAALPYVPG
notes: domain: GA3
B12: the midpoint of the response, the EC50, lay at 0.51 nM.

B13: Z10759, periplasmic ABD fusion (designed binder)
chain: AQHDEALEVDAKYAKEADDAAVEIASLPNLTWDQWFAFISKLRDDPSQSSELLSEAKKLNDSQAPKVDYVLAEAKVLANRELDKYGVSDYYKNLINNAKTVEGVKALIDEILAALPYVPG
notes: domain: GA3
With B13, the EC50 amounted to 0.67 nM.

B14: Z10565, periplasmic ABD fusion (designed binder)
chain: AQHDEALEVDAKYAKEADEAAVEIADLPNLTWDQWYAFIAKLRDDPSQSSELLSEAKKLNDSQAPKVDYVLAEAKVLANRELDKYGVSDYYKNLINNAKTVEGVKALIDEILAALPYVPG
notes: domain: GA3
With B14, the EC50 worked out at 0.38 nM.

B15: Z10508, periplasmic ABD fusion (designed binder)
chain: AQHDEALEVDAKYAKEADDAAVEIAALPNLTWDQWFAFISKLRDDPSQSSELLSEAKKLNDSQAPKVDYVLAEAKVLANRELDKYGVSDYYKNLINNAKTVEGVKALIDEILAALPYVPG
notes: domain: GA3
In turn, B15 returned a half-maximal effective concentration (EC50) of 0.38 nM.

B16: Z10255, periplasmic ABD fusion (designed binder)
chain: AQHDEALEVDAKYAKEADDAAVEIADLPNLTWDQWFAFIHKLRDDPSQSSELLSEAKKLNDSQAPKVDYVLAEAKVLANRELDKYGVSDYYKNLINNAKTVEGVKALIDEILAALPYVPG
notes: domain: GA3
In turn, B16 showed an EC50 of 0.46 nM.

B17: Z10550, periplasmic ABD fusion (designed binder)
chain: AQHDEALEVDAKYAKEADNAAVEIADLPNLTWDQWFAFIHKLRDDPSQSSELLSEAKKLNDSQAPKVDYVLAEAKVLANRELDKYGVSDYYKNLINNAKTVEGVKALIDEILAALPYVPG
notes: domain: GA3
The molecule B17 registered an EC50 of 0.79 nM.

B18: Z10703, periplasmic ABD fusion (designed binder)
chain: AQHDEALEVDAKYAKEADRAAMEIAELPNLTWDQWYAFISKLRDDPSQSSELLSEAKKLNDSQAPKVDYVLAEAKVLANRELDKYGVSDYYKNLINNAKTVEGVKALIDEILAALPYVPG
notes: domain: GA3
Turning to B18, the concentration for a half-maximal effect (EC50) stood at 0.75 nM.

B19: Z10433, periplasmic ABD fusion (designed binder)
chain: AQHDEALEVDAKYAKEADDAAFEIAALPNLTWDQWYAFIIKLRDDPSQSSELLSEAKKLNDSQAPKVDYVLAEAKVLANRELDKYGVSDYYKNLINNAKTVEGVKALIDEILAALPYVPG
notes: domain: GA3
B19: the midpoint of the response, the EC50, lay at 0.94 nM.

B20: Z10728, periplasmic ABD fusion (designed binder)
chain: AQHDEALEVDAKYAKEADDAAVEIAALPNLTWDQWYAFIGKLRDDPSQSSELLSEAKKLNDSQAPKVDYVLAEAKVLANRELDKYGVSDYYKNLINNAKTVEGVKALIDEILAALPYVPG
notes: domain: GA3
Consider B20, for which the EC50 amounted to 0.53 nM.

B21: Z10756, periplasmic ABD fusion (designed binder)
chain: AQHDEALEVDAKYAKEADDAAVEIALLPNLTWDQWYAFIGKLRDDPSQSSELLSEAKKLNDSQAPKVDYVLAEAKVLANRELDKYGVSDYYKNLINNAKTVEGVKALIDEILAALPYVPG
notes: domain: GA3
With B21, a half-maximal response (EC50) required 0.64 nM. This EC50 and that of the molecule before are within 1.5-fold of each other.

B22: Z10778, periplasmic ABD fusion (designed binder)
chain: AQHDEALEVDAKYAKEADDAAVEIADLPNLTWAQWFAFIQKLRDDPSQSSELLSEAKKLNDSQAPKVDYVLAEAKVLANRELDKYGVSDYYKNLINNAKTVEGVKALIDEILAALPYVPG
notes: domain: GA3
On to B22, for which the midpoint of the response, the EC50, lay at 0.47 nM.

B23: Z06282, periplasmic ABD fusion (designed binder)
chain: AQHDEALEVDAKYAKEADQAAMEIATLPNLTWDQWFAFIAKLRDDPSQSSELLSEAKKLNDSQAPKVDYVLAEAKVLANRELDKYGVSDYYKNLINNAKTVEGVKALIDEILAALPYVPG
notes: domain: GA3; positive control from the primary selection
B23 returned an EC50 of 5 nM. Compared with the last molecule, the EC50 is about 11-fold higher.

B24: Z10745, periplasmic ABD fusion (designed binder)
chain: AQHDEALEVDAKYAKEADNAAVEIASLPNLTWDQWFAFIGKLRDDPSQSSELLSEAKKLNDSQAPKVDYVLAEAKVLANRELDKYGVSDYYKNLINNAKTVEGVKALIDEILAALPYVPG
notes: domain: GA3
Consider B24, for which the EC50 came out at 0.68 nM.

B25: Z10708, periplasmic ABD fusion (designed binder)
chain: AQHDEALEVDAKYAKEADDAAVEIAELPNLTWDQWYAFIGKLRDDPSQSSELLSEAKKLNDSQAPKVDYVLAEAKVLANRELDKYGVSDYYKNLINNAKTVEGVKALIDEILAALPYVPG
notes: domain: GA3
B25 showed an EC50 of 0.41 nM.

B26: Z10241, periplasmic ABD fusion (designed binder)
chain: AQHDEALEVDAKYAKEADDAAVEIADLPNLTWDQWYAFISKLRDDPSQSSELLSEAKKLNDSQAPKVDYVLAEAKVLANRELDKYGVSDYYKNLINNAKTVEGVKALIDEILAALPYVPG
notes: domain: GA3
In the case of B26, the half-maximal effective concentration (EC50) amounted to 0.34 nM.

B27: Z10465, periplasmic ABD fusion (designed binder)
chain: AQHDEALEVDAKYAKEADDAAVEIAELPNLTWDQWFAFIQKLRDDPSQSSELLSEAKKLNDSQAPKVDYVLAEAKVLANRELDKYGVSDYYKNLINNAKTVEGVKALIDEILAALPYVPG
notes: domain: GA3
On to B27, for which a half-maximal response (EC50) required 0.5 nM.

B28: Z10462, periplasmic ABD fusion (designed binder)
chain: AQHDEALEVDAKYAKEADEAAVEIADLPNLTWDQWYAFIQKLRDDPSQSSELLSEAKKLNDSQAPKVDYVLAEAKVLANRELDKYGVSDYYKNLINNAKTVEGVKALIDEILAALPYVPG
notes: domain: GA3
In the case of B28, it took 0.34 nM to reach a half-maximal effect (EC50).

B29: Z10710, periplasmic ABD fusion (designed binder)
chain: AQHDEALEVDAKYAKEADNAAVEIAMLPNLTWDQWYAFIGKLRDDPSQSSELLSEAKKLNDSQAPKVDYVLAEAKVLANRELDKYGVSDYYKNLINNAKTVEGVKALIDEILAALPYVPG
notes: domain: GA3
On to B29, for which the midpoint of the response, the EC50, lay at 0.54 nM. Against the preceding molecule, the EC50 is about 1.6-fold higher.

B30: Z10532, periplasmic ABD fusion (designed binder)
chain: AQHDEALEVDAKYAKEADDAAVEIASLPNLTWDQWYAFIQKLRDDPSQSSELLSEAKKLNDSQAPKVDYVLAEAKVLANRELDKYGVSDYYKNLINNAKTVEGVKALIDEILAALPYVPG
notes: domain: GA3
B30 displayed an EC50 of 0.36 nM.

B31: Z10534, periplasmic ABD fusion (designed binder)
chain: AQHDEALEVDAKYAKEADDAAVEIADLPNLTWAQWYAFIGKLRDDPSQSSELLSEAKKLNDSQAPKVDYVLAEAKVLANRELDKYGVSDYYKNLINNAKTVEGVKALIDEILAALPYVPG
notes: domain: GA3
As for B31, the response was half-maximal at 0.41 nM (EC50).

B32: Z10483, periplasmic ABD fusion (designed binder)
chain: AQHDEALEVDAKYAKEADQAAVEIADLPNLTWDQWYAFIQKLRDDPSQSSELLSEAKKLNDSQAPKVDYVLAEAKVLANRELDKYGVSDYYKNLINNAKTVEGVKALIDEILAALPYVPG
notes: domain: GA3
Turning to B32, the EC50 was 0.4 nM.

These data come from US20250101074A1 (Affibody, published 2025).
